The record followed here is publication PMC4336329 (PLoS ONE, 2015).

The campaign covered roughly 310,000 compounds. About 2,200 (0.71%) showed an effect of 50% or more. The effect is printed as a negative number. Some of the results follow.

Sequence of human ether-à-go-go-related gene (hERG) potassium channel (Q12809 whole entry, looked up): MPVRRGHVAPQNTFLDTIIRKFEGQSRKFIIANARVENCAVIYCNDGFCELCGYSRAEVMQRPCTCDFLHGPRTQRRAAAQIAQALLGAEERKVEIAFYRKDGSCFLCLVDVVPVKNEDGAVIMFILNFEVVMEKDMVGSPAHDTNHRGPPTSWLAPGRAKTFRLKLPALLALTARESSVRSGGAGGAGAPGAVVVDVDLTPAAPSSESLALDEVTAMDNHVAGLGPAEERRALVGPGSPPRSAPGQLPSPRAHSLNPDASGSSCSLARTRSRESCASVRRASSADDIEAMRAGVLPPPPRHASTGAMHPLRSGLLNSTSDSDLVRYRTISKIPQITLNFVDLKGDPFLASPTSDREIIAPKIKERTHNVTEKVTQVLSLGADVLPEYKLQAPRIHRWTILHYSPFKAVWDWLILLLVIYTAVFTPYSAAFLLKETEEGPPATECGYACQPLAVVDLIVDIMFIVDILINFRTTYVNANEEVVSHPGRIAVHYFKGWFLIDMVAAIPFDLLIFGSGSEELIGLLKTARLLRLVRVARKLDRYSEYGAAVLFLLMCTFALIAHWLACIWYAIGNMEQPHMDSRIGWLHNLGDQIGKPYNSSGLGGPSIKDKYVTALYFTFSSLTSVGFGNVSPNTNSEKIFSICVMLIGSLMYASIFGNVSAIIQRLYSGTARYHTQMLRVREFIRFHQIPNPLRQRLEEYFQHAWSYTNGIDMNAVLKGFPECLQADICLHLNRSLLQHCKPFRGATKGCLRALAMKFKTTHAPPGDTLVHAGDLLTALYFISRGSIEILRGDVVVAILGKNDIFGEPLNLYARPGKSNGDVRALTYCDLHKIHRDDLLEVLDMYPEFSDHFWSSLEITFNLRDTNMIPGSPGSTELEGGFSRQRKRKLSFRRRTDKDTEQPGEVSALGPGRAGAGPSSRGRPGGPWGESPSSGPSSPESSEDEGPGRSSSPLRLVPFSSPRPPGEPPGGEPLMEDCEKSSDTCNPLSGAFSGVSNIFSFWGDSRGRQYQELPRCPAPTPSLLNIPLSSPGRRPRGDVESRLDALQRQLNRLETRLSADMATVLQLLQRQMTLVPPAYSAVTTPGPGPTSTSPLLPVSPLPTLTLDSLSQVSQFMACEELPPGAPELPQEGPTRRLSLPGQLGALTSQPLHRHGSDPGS

The experiment addresses human ether-à-go-go-related gene (hERG) potassium channel (human, UniProt Q12809). Briefly: primary screen, population patch clamp on CHO cells stably expressing hERG.
As to `Cc1ccc(-c2nnc(N3CC(C)OC(C)C3)c3ccccc23)cc1` (stereo not shown), the “hERG current change (%, negative = inhibition) at 1uM” value was 6.65%.

As for `COc1ccc(C)cc1NC(=O)Nc1ccccc1`, the “hERG current change (%, negative = inhibition) at 1uM” value is recorded as 10.4%.

In the case of `CCO[C@H]1OC(C(=O)NCc2nc3ccccc3[nH]2)=C[C@@H](c2ccc(Br)cc2)[C@@H]1CCCO`, the “hERG current change (%, negative = inhibition) at 1uM” value came out at 13.9%.

As to `CN(C[C@H](CC1CCCCC1)N(C[C@H](Cc1ccccc1)N(CCc1ccccc1)N=O)N=O)N=O.[Na+]`, the “hERG current change (%, negative = inhibition) at 1uM” value is given as 10.9%.

With `O=C(Nc1cccc(C2OCCCO2)c1)c1cccs1`, the “hERG current change (%, negative = inhibition) at 1uM” value was 15.7%.

For the compound `Cc1ccc(NC(=O)C(=S)NCc2ccco2)cc1`, the “hERG current change (%, negative = inhibition) at 1uM” value is reported as 6.81%.

On to `O=C(CN(Cc1ccccc1)C(=O)c1ccc2c(c1)OCCO2)NCc1ccc2c(c1)OCO2`, for which the “hERG current change (%, negative = inhibition) at 1uM” value is reported as -11.2%.

With `CCn1ccc2c(OCC(=O)NCCc3ccc(OC)c(OC)c3)cccc2c1=O`, the “hERG current change (%, negative = inhibition) at 1uM” value is reported as 13.9%.

For the compound `C[C@H](NC(=O)c1ccc(C(C)(C)C)cc1)C(=O)N1CCC2(CC1)NCCc1[nH]cnc12`, the “hERG current change (%, negative = inhibition) at 1uM” value came to 17.7%.

As to `Cc1nc(N2CCCCC2)c2c(C)c(C(=O)Nc3ccc4c(c3)OCCO4)sc2n1`, the “hERG current change (%, negative = inhibition) at 1uM” value was 15.8%.

Turning to `O=C(CN(C(=O)c1csnn1)c1cccc(F)c1)NCc1ccc2c(c1)OCO2`, the “hERG current change (%, negative = inhibition) at 1uM” value stood at 13.9%.

Take `O=S(=O)(c1ccc(-n2cnnn2)cc1)N1CCC(N2CCCCC2)CC1`: the “hERG current change (%, negative = inhibition) at 1uM” value is recorded as -9.44%.

Regarding `CC(NC1CCCCC1)C(O)C12CC3CC(CC(C3)C1)C2.Cl` (stereo not shown), the “hERG current change (%, negative = inhibition) at 1uM” value is on record as -13.6%.

Consider `O=C1c2ccccc2NC(c2ccc(F)cc2)N1Cc1ccccc1` (stereo not shown), for which the “hERG current change (%, negative = inhibition) at 1uM” value worked out at 9.43%.

Turning to `CCOC(=O)C1=C(CC)Nc2ccccc2N=C1NC(=O)c1cccc(S(=O)(=O)N2CCCC2)c1`, the “hERG current change (%, negative = inhibition) at 1uM” value is reported as 12.9%.

In the case of `O=C(NC1CCCCC1)c1ccc(-c2ccccc2[N+](=O)[O-])o1`, the “hERG current change (%, negative = inhibition) at 1uM” value was found to be 6.82%.

`Cc1nnc(SCC(=O)Nc2nccs2)n1N`: the “hERG current change (%, negative = inhibition) at 1uM” value is listed as -11.7%.

As for `Cc1cccc(N2C(=O)NC(=O)/C(=C\c3cc(C)n(-c4sc5c(c4C#N)CCCC5)c3C)C2=O)c1C`, the “hERG current change (%, negative = inhibition) at 1uM” value was 9.38%.

Consider `CCOC(=O)/C(C#N)=C\c1cn(C)c2ccccc12`, for which the “hERG current change (%, negative = inhibition) at 1uM” value was found to be 17.1%.

Turning to `Cc1cc(/C=C2\C(=N)N3N=C(S(C)(=O)=O)SC3=NC2=O)c(C)n1Cc1ccccc1`, the “hERG current change (%, negative = inhibition) at 1uM” value is listed as 7.52%.

Turning to `Nc1cc[n+](CC(=O)c2ccccc2)cc1.[Br-]`, the “hERG current change (%, negative = inhibition) at 1uM” value is 19.1%.

Regarding `COc1ccccc1N(C)S(=O)(=O)c1ccc(C(=O)OCC(=O)Nc2cc(C)on2)cc1`, the “hERG current change (%, negative = inhibition) at 1uM” value was found to be 10.7%.

Regarding `CN(C)CCCN(C(=O)c1ccc2c(c1)OCCO2)c1nc2cc3c(cc2s1)OCO3.Cl`, the “hERG current change (%, negative = inhibition) at 1uM” value is recorded as -11.9%.

`COCCNC(=O)c1ccccc1NC(=O)CSc1ccc(C)cc1`: the “hERG current change (%, negative = inhibition) at 1uM” value is on record as 7.67%.

Turning to `O=C(c1cnn2c(C(F)(F)F)cc(-c3ccccc3)nc12)N1CCCCC1c1cccnc1` (stereo not shown), the “hERG current change (%, negative = inhibition) at 1uM” value is reported as 8.17%.

Take `COc1ccccc1NC(=O)c1cc(C(=O)Nc2ccccc2OC)n(C)n1`: the “hERG current change (%, negative = inhibition) at 1uM” value is on record as 13.9%.

For `CC(C)(C)C(=O)CSc1nccc(=O)[nH]1`, the “hERG current change (%, negative = inhibition) at 1uM” value is reported as 7.65%.

Regarding `CCN(CC)C(=O)C1CCCN(C(=O)c2cc(COc3ccc4ncccc4c3)on2)C1` (stereo not shown), the “hERG current change (%, negative = inhibition) at 1uM” value is 7.18%.

As to `CCN(CC)C(=O)c1ccc(S(=O)(=O)NCc2cccnc2)cc1`, the “hERG current change (%, negative = inhibition) at 1uM” value was determined as 14.3%.

Regarding `COC(=O)c1sccc1-n1cccc1C(=O)C(=O)N1CCOCC1`, the “hERG current change (%, negative = inhibition) at 1uM” value is given as -87.6%.

As for `COC(=O)c1c(NC(=O)CC2SC(N)=NC2=O)sc2c1CCC(C(C)(C)C)C2` (stereo not shown), the “hERG current change (%, negative = inhibition) at 1uM” value is 9.34%.

With `COc1cccc(OC)c1C(=O)NC(=S)N1CCOCC1`, the “hERG current change (%, negative = inhibition) at 1uM” value stood at 14.8%.

Regarding `COc1ccc(-c2noc(-c3ccccc3-c3ccccc3)n2)cc1OC`, the “hERG current change (%, negative = inhibition) at 1uM” value stood at 11%.

In the case of `CC(C)Oc1ccc(C(=O)NC2CCCCC2)cc1`, the “hERG current change (%, negative = inhibition) at 1uM” value is recorded as 12.1%.

On to `CCOc1ccc(CN(C)C(C)C(=O)NCCc2ccc(F)cc2)cc1` (stereo not shown), for which the “hERG current change (%, negative = inhibition) at 1uM” value is recorded as -57.1%.

`COc1cc(OC)c(C2CC(=O)N3CN(C)CSC3=C2C#N)cc1OC` (stereo not shown): the “hERG current change (%, negative = inhibition) at 1uM” value is 15.6%.

In the case of `CC(OC(=O)Cc1coc2cc3c(cc12)CCC3)C(=O)NCc1ccc2c(c1)OCO2` (stereo not shown), the “hERG current change (%, negative = inhibition) at 1uM” value was -5.75%.

With `Nc1ncc(Br)cc1S(=O)(=O)NCCc1ccccc1`, the “hERG current change (%, negative = inhibition) at 1uM” value turned out to be 15.1%.

For `CCCNC(=O)Nc1nc(CC(=O)OCC)cs1`, the “hERG current change (%, negative = inhibition) at 1uM” value amounted to 23.3%.

Take `Cc1ccc(S(=O)(=O)N2CCCCC2)cc1NC(=O)COC(=O)C1CC2C=CC1C2` (stereo not shown): the “hERG current change (%, negative = inhibition) at 1uM” value was -16.7%.

With `CN(C)C(=O)c1ccc(NC(=O)CSc2nc3ccccc3[nH]2)cc1`, the “hERG current change (%, negative = inhibition) at 1uM” value is 9.86%.

Turning to `O=C(O)CN1C(=O)/C(=C/c2cccc(Cl)c2)Oc2ccccc21`, the “hERG current change (%, negative = inhibition) at 1uM” value is -8.61%.

Regarding `COC(=O)c1cc(S(=O)(=O)Nc2nn(C)c3ccccc23)oc1C`, the “hERG current change (%, negative = inhibition) at 1uM” value is 14.7%.
